Data as given in publication PMC4336329 (PLoS ONE, 2015).
The whole screen tested about 310,000 compounds, of which about 2,200 (0.71%) showed an effect of 50% or more. Effects have a minus sign here. Some of the results follow.

Each molecule was assayed against human ether-à-go-go-related gene (hERG) potassium channel (human, UniProt Q12809) (assay: primary screen, population patch clamp on CHO cells stably expressing hERG).
Chain of human ether-à-go-go-related gene (hERG) potassium channel (Q12809 whole entry, looked up): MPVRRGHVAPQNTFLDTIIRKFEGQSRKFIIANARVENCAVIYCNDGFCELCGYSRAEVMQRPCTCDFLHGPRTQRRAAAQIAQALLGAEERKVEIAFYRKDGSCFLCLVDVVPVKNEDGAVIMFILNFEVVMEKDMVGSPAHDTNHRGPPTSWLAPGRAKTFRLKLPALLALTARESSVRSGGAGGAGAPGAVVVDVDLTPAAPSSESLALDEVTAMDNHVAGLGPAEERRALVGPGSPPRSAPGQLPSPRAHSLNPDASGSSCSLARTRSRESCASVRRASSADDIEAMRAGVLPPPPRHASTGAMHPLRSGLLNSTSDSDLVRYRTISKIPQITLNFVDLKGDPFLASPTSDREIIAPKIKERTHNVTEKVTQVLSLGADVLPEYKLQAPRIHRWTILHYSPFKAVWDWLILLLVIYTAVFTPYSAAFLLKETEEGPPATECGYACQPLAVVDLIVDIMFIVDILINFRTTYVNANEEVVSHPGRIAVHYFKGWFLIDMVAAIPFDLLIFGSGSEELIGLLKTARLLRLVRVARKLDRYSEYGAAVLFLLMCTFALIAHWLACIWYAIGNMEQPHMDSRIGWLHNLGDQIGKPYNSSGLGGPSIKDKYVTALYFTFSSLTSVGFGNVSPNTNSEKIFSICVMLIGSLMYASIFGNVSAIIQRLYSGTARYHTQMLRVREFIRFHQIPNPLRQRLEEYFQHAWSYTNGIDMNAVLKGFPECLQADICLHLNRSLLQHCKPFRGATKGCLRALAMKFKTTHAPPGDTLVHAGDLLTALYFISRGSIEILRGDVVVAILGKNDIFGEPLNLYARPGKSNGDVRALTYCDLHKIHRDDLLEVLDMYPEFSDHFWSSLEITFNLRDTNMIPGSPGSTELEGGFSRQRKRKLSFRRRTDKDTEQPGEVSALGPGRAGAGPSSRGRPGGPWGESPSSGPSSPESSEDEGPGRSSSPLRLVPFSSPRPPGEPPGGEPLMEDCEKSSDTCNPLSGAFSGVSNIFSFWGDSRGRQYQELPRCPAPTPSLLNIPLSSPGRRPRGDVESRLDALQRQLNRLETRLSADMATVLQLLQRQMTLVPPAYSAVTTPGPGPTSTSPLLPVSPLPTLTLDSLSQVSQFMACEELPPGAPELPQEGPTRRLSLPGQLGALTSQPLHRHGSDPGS

Structure (SMILES)	hERG current change (%, negative = inhibition) at 1uM [%]
COc1ccc(N2C(=O)C(CN3CCCCC3)C2c2ccccc2)cc1 (stereo not shown)	-4.22
CCCC(=O)Nc1ccc(C(=O)NCc2ccccn2)cc1	4.39
CC(C)OCCCNC(=O)c1ccc(N(C)S(C)(=O)=O)cc1	16.2
COc1cccc(Cn2cnc3c(NS(=O)(=O)c4ccc(Cl)cc4Cl)c(C)c(C)cc32)c1	4.63
CCC(=O)Nc1c(C(=O)N2CCN(c3ccccn3)CC2)cnn1-c1ccc(Cl)cc1	1.68
COc1ccccc1CN1CC(C(=O)NCc2cccc(C)n2)CCC1=O (stereo not shown)	16.9
COc1ccccc1-c1noc(CCCC(=O)NC2CCCCC2)n1	7.28
O=C(CN1CCN(S(=O)(=O)c2ccc(Br)s2)CC1)N1CCCCC1	-2.89
O=c1[nH][nH]c(-c2ccccc2O)c1C(C[N+](=O)[O-])c1ccccc1 (stereo not shown)	14
CC(CC(=O)O)Nc1ccccc1O (stereo not shown)	16.5
CC(Sc1nnc(Cn2c(=O)sc3ccccc32)n1C)c1ccccc1 (stereo not shown)	-8.23
O=C(Cn1ncc(Cl)c(Cl)c1=O)Nc1ccc2c(c1)OCO2	-3.02
Cc1ccc(C(=O)OCC(=O)c2c(N)n(C)c(=O)n(C)c2=O)cc1S(=O)(=O)N1CCCCC1	10.9
Cc1cc2cc(CN(CC3CCCO3)C(=S)NCc3ccco3)c(=O)[nH]c2cc1C (stereo not shown)	7.38
CCOC(=O)C1(Cc2ccccc2)CCCN(CCO)C1 (stereo not shown)	12.9
O=C(c1ccco1)[C@@H]1[C@@H]2C(=O)N(c3ccc(F)cc3)C(=O)[C@@H]2[C@H]2C=Cc3ccccc3N21	11.2
Cc1ccc2nc(SC(C)C(=O)NCc3ccc4c(c3)OCO4)[nH]c2c1 (stereo not shown)	9.48
CC(=O)Nc1ccc(S(=O)(=O)N(C)CC(=O)N/N=C/c2ccncc2)cc1	16.4
Cc1ccc(C(C)C)c(OCc2n[nH]c(=S)o2)c1	8.13
NC(=O)c1nnsc1Sc1c(C(N)=O)nnn1-c1cccc(N)c1	8.69
CC(=O)Nc1cc2c3c(c1)CC(=O)N3CCC2	-20.2
O=C(Nc1ccc(F)cc1)c1nc(S(=O)(=O)Cc2ccccc2)ncc1Cl	15.8
COc1cc2c(C)nc(C)c(C#N)c2cc1OC.Cl	3.31
COc1cc(C)c(Cl)cc1S(=O)(=O)n1ccnc1C	13.2
COc1cccc(-c2cnc(NCc3cc(Cl)ccc3O)n2C)c1.O=C(O)C(=O)O	-8.11
